US6809233B2, “DNA sequences for an amino acid transporter plasmids, bacteria, yeasts and plants containing a transporter and their use” (Hoechst Schering AgrEvo GmbH, priority 1992, dated 2004)
At least one read-out could not be matched to a standard name with certainty.

Target: T1, amino acid transporter (PPP1-20, SEQ ID No. 1) in 22574d::PPP1-20 yeast strain (Arabidopsis thaliana, UniProt Q42400)
T1 construct: expressed in transfected cells; host or cells: Saccharomyces cerevisiae strain 22574d transformed with pFL61-ppp1-20
T1 sequence (Q42400 1-485): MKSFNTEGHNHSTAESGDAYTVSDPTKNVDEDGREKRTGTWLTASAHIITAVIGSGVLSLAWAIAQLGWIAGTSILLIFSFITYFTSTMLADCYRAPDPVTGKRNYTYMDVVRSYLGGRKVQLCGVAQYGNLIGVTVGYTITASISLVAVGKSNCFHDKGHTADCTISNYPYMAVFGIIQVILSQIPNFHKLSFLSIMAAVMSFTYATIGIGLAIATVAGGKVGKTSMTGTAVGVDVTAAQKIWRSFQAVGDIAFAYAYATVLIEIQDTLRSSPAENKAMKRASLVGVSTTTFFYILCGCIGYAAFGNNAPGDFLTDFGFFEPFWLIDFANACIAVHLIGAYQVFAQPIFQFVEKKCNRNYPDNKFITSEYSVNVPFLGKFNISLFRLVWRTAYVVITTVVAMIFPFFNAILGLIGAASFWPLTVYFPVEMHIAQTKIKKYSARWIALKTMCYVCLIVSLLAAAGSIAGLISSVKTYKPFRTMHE
Test: Competition of 14C-L-proline uptake by excess of amino acids and analogues in 22574d::PPP1-20 yeast strain
Format: cell-based
Method: After centrifuging the culture, the cells are washed and taken up in 100 mm tris/HCl pH 4.5, 2 mM MgCl2 and 0.6M sorbitol. Around 100 μL of the suspension was added to a solution of 0.5 mM L-proline plus 1 μCi ^14C labeled L-proline in 100 μL of the same buffer. The uptake of the labeled amino acid was measured by the process described by Cirillo (1989, Meth Enzymol 174: 617-622). The uptake of the labeled amino acid was compared, on the one hand, in co-incubation with protein modifying substance diethyl pyrocarbonate which is an inhibitor of the amino acid transport in membrane vesicles from Beta vulgaris, and, on the other hand, in co-incubation with other protein modifying substances. A competition experiment in which the specificity of the transporter could be read off with various amino acids and analogues is shown in Table II for PPP1-20 and in FIG. 4 for AAP2. An analogous experiment in which a competition for histidine uptake in the line JT16::AAP2 was tested is described in Example 5.

Compound	% remaining transport activity (4 x excess of competitor)	% remaining transport activity (1 x excess of competitor)	% remaining transport activity (10 x excess of competitor)
NC(=O)NCCC[C@H](N)C(=O)O [citrulline]	44%	–	–
N[C@@H](CCC(=O)O)C(=O)O [glutamic acid]	27%	64%	30%
N=C(N)NCCC[C@H](N)C(=O)O [arginine]	88%	85%	74%
O=C(O)[C@@H]1C[C@@H](O)CN1 [OH-proline, hydroxyproline]	–	81%	45%
N[C@@H](Cc1c[nH]c2ccccc12)C(=O)O [tryptophan]	71%	82%	48%
NCCCC[C@H](N)C(=O)O [lysine]	–	86%	83%
O=C(O)C1CCN1 (stereo not shown) [azetidine-2-carboxylic acid]	–	91%	48%
